Data reported in the supplement of paper PMC11417369.
The list shows a part of the results.

Test system: PfAP2-HC AP2 domain (GST-tagged)
Assay: gcPBM binding intensity (ln(normalized median fluorescence intensity)); higher = stronger DNA binding
Summary of the method: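 GST-tagged P. falciparum DNA-binding domains, expressed in E. coli (about 25 μg on average), were applied for 1 h to an Agilent 4 × 180k array of primer-extended double-stranded 36-bp intergenic genomic probes plus negative controls. The binding buffer was 1× PBS with 1% milk, 0.2 mg/ml BSA, 0.5% salmon testes DNA and 0.03% Triton X-100. Bound protein was detected with Alexa488 anti-GST antibody and scanned at 488 nm. Binding intensity is the highest Masliner-normalised natural-log median intensity across replicate spots of either probe orientation.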

First: ATTTGTTTATAGGCCATAAAATATTTAATTCATTTG [CACACA_negctrl_site1824]
Second: AGTATTATATTTGTATGTACGTAGTAATATATAAAA [XGTACX_site528]
The “gcPBM binding intensity (ln)” value of the first is lower: 9.43 for the first, 9.67 for the second.

First: TTTTTCATAAATATATGTACATATATTTTATATAAC [XGTACX_site3402]
Second: AATGTAATATAAATATGTACATAATATATATAATTA [XGTACX_site4762]
The “gcPBM binding intensity (ln)” value of the first is lower: 9.66 for the first, 9.8 for the second.

Compared with “TTTTTATTTTTTTAGTATACGTACTAGGTTTGTTCT [XGTACX_site645]”, “ATATATTTATATATATGTACTTAAAACATTTCGATG [XGTACX_site328]” is lower in “gcPBM binding intensity (ln)” value: 9.75 for the first, 9.42 for the second.

Going from “AACAAGAAAAAAAAAAAAAAAAAAAAAAAATATTTT [XGTACX_negctrl_site428]” to “ATATATATATTTTTATGAGGCATAAGTAATATTTTT [TGCATGCA_negctrl_site317]”, the “gcPBM binding intensity (ln)” value rises from 9.39 to 9.56.

First: ATATAAAATATTAGTAGTACCATTAACAGTATTGTT [XGTACX_site5912]
Second: ATTAAGATGTATATATGTACATATTACATACATATA [XGTACX_site8657]
The “gcPBM binding intensity (ln)” value of the first is lower: 9.69 for the first, 9.72 for the second.

Compared with “AAAAAAAATTAATTAGTGCAAAATATATACAAAATA [GTGCAC_site9762]”, “TAAGAAAATATTTATGTATGCATGTCCTAATATTTC [TGCATGCA_site295]” is lower in “gcPBM binding intensity (ln)” value: 9.8 for the first, 9.57 for the second.

Compared with “TATGAAAAAAAAAATACACACACGAGTTGTTATACA [CACACA_site3188]”, “AATGAAATATGGATGGGTACACATTTGATTTTATTA [XGTACX_site6155]” is lower in “gcPBM binding intensity (ln)” value: 9.81 for the first, 9.61 for the second.

Going from “ATATATATAAACATATGTACACATATATATAATACA [XGTACX_site1848]” to “TGTATGTATAGAAACACACATACATATATATAATAT [CACACA_site1405]”, the “gcPBM binding intensity (ln)” value falls from 9.83 to 9.78.

Compared with “TTTAGATAATTCATTACACACATGTATATTTATATA [CACACA_site7602]”, “TTTTTTTTTTTTTTATGTACGAAAGAAAAGCACATA [XGTACX_site8261]” is lower in “gcPBM binding intensity (ln)” value: 9.84 for the first, 9.08 for the second.

First: TAACGAATTTAAATTTGTACATATATAAATATATAA [XGTACX_site2168]
Second: ATCATCTATGTTATTACACACGTTATGTTATTATAA [CACACA_site5502]
The “gcPBM binding intensity (ln)” value of the first is lower: 9.45 for the first, 9.92 for the second.

Going from “ATAATACACGATTATTTTCCCTTTATGTAAATATAT [CACACA_negctrl_site1107]” to “TATATATATAATATTGCACACAAAATTAAAAGTAAA [CACACA_site7889]”, the “gcPBM binding intensity (ln)” value rises from 9.63 to 9.88.

First: AAAAAAAAAAAATGTGTGCACATTATTTCAACTTAA
Second: TATTTTATCTATTTGTGTACTTATATTTATGCAAAA [XGTACX_site1499]
The “gcPBM binding intensity (ln)” value of the first is higher: 9.83 for the first, 9.62 for the second.

Compared with “AAATTATTAAAAAAAAGTACATATATATATATATAT [XGTACX_site8313]”, “ATAAATAATATATATACACACATATCTATACATATT [CACACA_site487]” is higher in “gcPBM binding intensity (ln)” value: 9.3 for the first, 9.9 for the second.

Going from “TATATTCTTTATAGGTGTACTTAATAAATAAAAAAT [XGTACX_site5378]” to “TATGAACATAAATTTGCACACTGGATATAATATATA [CACACA_site2155]”, the “gcPBM binding intensity (ln)” value rises from 9.44 to 9.76.

Going from “TATATATATGTGTTTACACACAATAATGAATTAAAA [CACACA_site4659]” to “TATCTAGTTACTCCTTGTACATAATAAATGATTTTT [XGTACX_site5674]”, the “gcPBM binding intensity (ln)” value falls from 9.65 to 9.57.

Compared with “AGAAAGAAAGAATACACACACACATATATAAATATC [CACACA_site7716]”, ATTATCAATATGAAGGTGCATTTAAATAATATTTAC is lower in “gcPBM binding intensity (ln)” value: 10.4 for the first, 9.61 for the second.

First: AAATATTATAGCACCACACACTTATTTTATTTATAT [CACACA_site7133]
Second: ACTAAACTTTTATGTACACACATATAACATTAATTT [CACACA_site5276]
The “gcPBM binding intensity (ln)” value of the first is higher: 10.1 for the first, 9.98 for the second.

Going from “TACGTAAAAATAGGACGTACTTATTTAGAAACCATA [XGTACX_site2498]” to “TACAAAATGGGGAACACACACATATATATATATATA [CACACA_site3844]”, the “gcPBM binding intensity (ln)” value rises from 9.63 to 9.99.

Compared with “TTGGTACCTATAGATACACACATATATACCTATATA [CACACA_site5812]”, “TTTTTTTTTTTTGTCACACACCTTCATAAGAAAAAA [CACACA_site4779]” is lower in “gcPBM binding intensity (ln)” value: 9.74 for the first, 9.54 for the second.

Compared with “GTACAGATATTGTACATACACACCTATATAAATATC [CACACA_site5739]”, “TAAATCCGCAGGCACACACACATATTAAGAAAAAAA [CACACA_site6061]” is higher in “gcPBM binding intensity (ln)” value: 9.82 for the first, 10.2 for the second.

Going from “ATGAAAAAACATAATTGTACAAAAGTTGGATTCGAT [XGTACX_site7732]” to “ATCATCACATAAGAAAATAGATAAAAAAAAAAAAAT [XGTACX_negctrl_site589]”, the “gcPBM binding intensity (ln)” value falls from 10 to 9.51.

Compared with “ATTAAATGATTCATATGTACATAAATAAATAAATAT [XGTACX_site2249]”, “TTTCTTTTTAAAGTGTATTAAAATTGAATAAAAAGA [XGTACX_negctrl_site408]” is lower in “gcPBM binding intensity (ln)” value: 9.77 for the first, 9.03 for the second.

First: TATTAATATTTACACACATGCGCACACATAAATAAA [TGCATGCA_site609]
Second: AAAGAGAAACAAAATTGTACATTATATTGTAGACGT [XGTACX_site976]
The “gcPBM binding intensity (ln)” value of the first is higher: 10.2 for the first, 9.75 for the second.

First: TATATTTATAAGTGTACACATTATATAAATCCCTAT [CACACA_site6122]
Second: TGGGAACAATATATTTGTACTTAAATAAATAAAAAA [XGTACX_site6762]
The “gcPBM binding intensity (ln)” value of the first is higher: 9.57 for the first, 9.47 for the second.

Going from “GAACAAAATGATAGAAGTACAAATATTTATTTTGTT [XGTACX_site7146]” to “TAAGAAAAATATATATGTACACATATATATATATAT [XGTACX_site8542]”, the “gcPBM binding intensity (ln)” value falls from 9.69 to 9.61.

Compared with “TGTATGTTATATACAACACACAAAAAAAAACAAGTT [CACACA_site301]”, “AACTTTTATACGGATACACACAAAAAAAAATAAAAA [CACACA_site6547]” is lower in “gcPBM binding intensity (ln)” value: 9.95 for the first, 9.72 for the second.

Compared with TACAATATTTCGAGCTTGCACTTTTATTAAGTAAAT, “TATCTGTATTTGTATACACACAAATGTATTTATTTA [CACACA_site4830]” is higher in “gcPBM binding intensity (ln)” value: 9.52 for the first, 9.9 for the second.

Compared with “TATACAGACAGACACACACACATATATAAATATGTA [CACACA_site6912]”, “ATTATTATTTTTAACTGTACATAGATATAGATATCC [XGTACX_site8714]” is lower in “gcPBM binding intensity (ln)” value: 10.6 for the first, 9.49 for the second.

Compared with “TAATTAGCATAATACACATGCATACATTTATATATA [TGCATGCA_site542]”, TACATATATCTATGTGTGCACTTATTTCCGGACAAA is higher in “gcPBM binding intensity (ln)” value: 9.65 for the first, 9.82 for the second.

Compared with “AAAAAAAAAAAACATACACACAAGAACAAAATATGA [CACACA_site3002]”, “AGTCTTTTACATTGCACACACATTTCTTTCCTTTTG [CACACA_site2988]” is lower in “gcPBM binding intensity (ln)” value: 10.6 for the first, 10.5 for the second.

Compared with “ATGTGTATACTAAGAACACACAAGTTACTTGGTGTT [CACACA_site6864]”, “TATTTAAAAGATGAAAGTACACATTTAATTACATTT [XGTACX_site3781]” is lower in “gcPBM binding intensity (ln)” value: 9.78 for the first, 9.36 for the second.

Compared with “TATATTTAACATACTTTTTTTTTTTTTTTTTTTTTT [CACACA_negctrl_site938]”, “TTATAACTTTTCACAAGTACATATATATATGTATAA [XGTACX_site2306]” is higher in “gcPBM binding intensity (ln)” value: 9.27 for the first, 9.53 for the second.

Compared with “ATATATATGTTTTTATGTACATATTTTTCTCCTTCA [XGTACX_site5899]”, “TTTGGAAAGCGTGATTTTTGACAAACACAAAAAAAA [CACACA_negctrl_site651]” is lower in “gcPBM binding intensity (ln)” value: 9.74 for the first, 9.41 for the second.

Going from “AATAAATTCATGAATTGTACGTAATGATAACATGAA [XGTACX_site2591]” to “ATTTTCTTTTTTAAACGTACACATATTAAATATATA [XGTACX_site7773]”, the “gcPBM binding intensity (ln)” value falls from 9.83 to 9.68.

Compared with “TTTTTATTCCAGTATTCACACACGAATAACCACATA [CACACA_site1897]”, “ATTATTTTATGAGACATAAAAAAAAAAAAAAAAAAA [CACACA_negctrl_site1067]” is lower in “gcPBM binding intensity (ln)” value: 9.82 for the first, 8.7 for the second.

Compared with “AGATGAGAGATATATACACACAATAATACCTATTTA [CACACA_site6542]”, “ATATTATTTATAAAAGTGCAAAAATCACTTCTTTTA [GTGCAC_site9656]” is lower in “gcPBM binding intensity (ln)” value: 9.92 for the first, 9.43 for the second.

Going from “TTTAAAAAGTTATGAAGTACATATATATATATATAT [XGTACX_site2188]” to “ATTTCCTTGAATGTTGCATGCTGTATTTTAATTAAA [TGCATGCA_site280]”, the “gcPBM binding intensity (ln)” value rises from 9.46 to 9.67.

“AAAAAAAGGAAATTTACACACACATATAATATACAT [CACACA_site3297]” and “AAAAAAAAAAAGTGCACACATAAAAATATGATCTAA [CACACA_site572]” are the same in “gcPBM binding intensity (ln)” value: 10.2 for the first, 10.2 for the second.

Going from “TAAATTTTTCTAAGTGCATGTTAATTTTTCAATTTA [TGCATGCA_site906]” to TAGATTATTATACTAGTGCAAATTATTTAAGAAAAA, the “gcPBM binding intensity (ln)” value rises from 9.44 to 9.5.

Going from “TGCACGCACAGACACACACACAACTAAAAAATAATG [CACACA_site7250]” to “AAAAAAAGGTAAAATTGTACATACGCACAAAAATAT [XGTACX_site2887]”, the “gcPBM binding intensity (ln)” value falls from 10.3 to 9.88.

Going from TAATATCGTATATGAGTGCAATATTTTAGATTTTGA to “AATATATCAAAAATGATGACATAAATATATTAATTT [GTGCAC_negctrl_site530]”, the “gcPBM binding intensity (ln)” value rises from 9.49 to 9.62.

First: TATATATATATATATATATATATATATGTATATATG [XGTACX_negctrl_site242]
Second: ATAATCCACAAGCACACACACACACCCATATATATA [CACACA_site1268]
The “gcPBM binding intensity (ln)” value of the first is lower: 9.34 for the first, 10.6 for the second.

Compared with “AACTTTAAACCCTGAACACACACAAATACACCCAAA [CACACA_site7971]”, CTTTTCTATTTTTTCGTGCACTATAAATATTTTAAT is lower in “gcPBM binding intensity (ln)” value: 10.2 for the first, 9.91 for the second.

“CACCAAAATATATGTACATATGATAAATGTGAATAT [GTGCAC_negctrl_site83]” and “AAAATTATCGTTATATGTACGCATCTTAATACGTAT [XGTACX_site4063]” are the same in “gcPBM binding intensity (ln)” value: 9.76 for the first, 9.76 for the second.

Compared with GTCTATATATTTTAGGTGCAACGTAAATGTAAAAAT, “TTTTACAATATTTTGTGTACTTATATTATGAGCTTA [XGTACX_site3287]” is lower in “gcPBM binding intensity (ln)” value: 9.71 for the first, 9.58 for the second.
